The list shows a part of the results.
Key:
[1] = system: HSkMC (human skeletal muscle cells); test: cytotoxicity call (relative viability < 0.9); settings: 10 µM
[2] = system: HepG2; test: cytotoxicity call (relative viability < 0.9); settings: 10 µM
[3] = system: S. aureus RN4220; test: growth inhibition call (relative growth <= 0.2); settings: 50 µM

Row | SMILES | cytotoxicity call [1] | cytotoxicity call [2] | growth inhibition call [3]
1 | C[C@@H]1CN([C@@H](C)CO)C(=O)c2cc(NC(=O)CCC(F)(F)F)ccc2O[C@@H](C)CCCCO[C@@H]1CN(C)S(=O)(=O)c1ccccc1 | inactive | inactive | inactive
2 | C[C@H](O)C#Cc1ccc2c(c1)O[C@H](CN(C)C(=O)c1ccncc1)[C@@H](C)CN([C@H](C)CO)S2(=O)=O | inactive | inactive | inactive
3 | CO[C@@H]1CN(C)C(=O)c2cc(NC(=O)Nc3ccccc3F)ccc2OC[C@@H](C)N(Cc2ccccc2F)C[C@H]1C | inactive | inactive | inactive
4 | C[C@@H]1CN([C@H](C)CO)C(=O)c2cc(NS(=O)(=O)c3ccc(Cl)cc3)ccc2O[C@@H](C)CCCCO[C@@H]1CN(C)C(=O)NC1CCCCC1 | inactive | active | inactive
5 | C[C@@H]1CCCCO[C@H](CN(C)S(=O)(=O)c2ccc(F)cc2)[C@@H](C)CN([C@H](C)CO)C(=O)c2cc(NS(=O)(=O)c3ccc(Cl)cc3)ccc2O1 | inactive | inactive | inactive
6 | COc1ccc([Si](C)(C)[C@H]2[C@H](CCO)O[C@@]3(C(=O)N(Cc4ccccc4)c4ccc(N5C(=O)c6cccc7cccc5c67)cc43)[C@@H]2C)cc1 | inactive | active | inactive
7 | Cc1nc(N2CCC3(CC2)CO[C@@H](C)[C@H]3N)c(CO)nc1-c1cccc(Cl)c1Cl | inactive | inactive | inactive
8 | O=C(C[C@H]1CC[C@H]2[C@@H](COC[C@@H](O)CN2S(=O)(=O)c2ccc(Cl)cc2)O1)NCC1CCCCC1 | inactive | inactive | inactive
9 | O=C(CCCCCNC(=O)OCc1ccc(CO[C@@H]2C[C@H](C3CCCCC3)C=C(C(=O)N3CCCCCCC3)O2)cc1)NO | inactive | inactive | inactive
10 | Cc1ccc(S(=O)(=O)N(C)C[C@@H]2Oc3ncc(C#CCC(C)C)cc3C(=O)N([C@H](C)CO)C[C@@H]2C)cc1 | inactive | inactive | inactive
11 | Cc1noc(C)c1S(=O)(=O)N(C)C[C@@H]1Oc2ccc(NC(=O)CCCN(C)C)cc2CC(=O)N([C@@H](C)CO)C[C@H]1C | inactive | inactive | inactive
12 | CC(C)N1C[C@H](C)[C@@H](CN(C)Cc2ccc(Cl)c(Cl)c2)Oc2c(C(=O)Nc3ccncc3)cccc2C1=O | inactive | inactive | inactive
13 | C[C@@H]1CN([C@@H](C)CO)C(=O)Cc2cc(NS(=O)(=O)c3cn(C)cn3)ccc2O[C@H]1CN(C)Cc1ccc(C(=O)O)cc1 | inactive | inactive | inactive
14 | C[C@H](CO)N1C[C@H](C)[C@@H](CN(C)C(=O)Nc2cccc3ccccc23)Oc2ccc(NC(=O)Nc3ccc(F)cc3)cc2C1=O | inactive | inactive | inactive
15 | Cl.Cl.N=C(NCCCCCCNC(=N)NC(=N)Nc1ccc(Cl)cc1)NC(=N)Nc1ccc(Cl)cc1 | active | active | active
16 | C[C@H](CO)N1C[C@H](C)[C@@H](CN(C)Cc2ccc(Cl)c(Cl)c2)OCCCC[C@H](C)Oc2ccc(NC(=O)Nc3ccccc3)cc2C1=O | inactive | active | inactive
17 | C[C@@H]1CN([C@@H](C)CO)C(=O)c2cc(NC(=O)Cc3ccccc3)ccc2O[C@@H](C)CCCCO[C@@H]1CN(C)C(=O)CCC(F)(F)F | inactive | inactive | inactive
18 | C[C@@H]1CN([C@H](C)CO)C(=O)c2cc(NS(C)(=O)=O)ccc2O[C@@H](C)CCCCO[C@H]1CN(C)C(=O)Nc1ccc(C(F)(F)F)cc1 | inactive | inactive | inactive
19 | C[C@@H]1CN([C@H](C)CO)C(=O)c2cc(NS(C)(=O)=O)ccc2O[C@H]1CN(C)Cc1ccc(C(F)(F)F)cc1 | inactive | inactive | inactive
20 | C[C@@H]1CCCCO[C@@H](CN(C)Cc2ccncc2)[C@@H](C)CN([C@@H](C)CO)C(=O)c2cc(NS(C)(=O)=O)ccc2O1 | inactive | inactive | inactive
21 | CCC[C@H]1CN(S(=O)(=O)c2c(C)cc(C)c3nonc23)C[C@@H]1N | inactive | inactive | inactive
22 | C[C@H]1CN([C@@H](C)CO)C(=O)Cc2cc(NS(=O)(=O)c3ccc(Cl)cc3)ccc2O[C@H]1CN(C)Cc1ccc(Oc2ccccc2)cc1 | active | active | inactive
23 | C[C@@H]1CN([C@@H](C)CO)C(=O)Cc2cc(NC(=O)C3CC3)ccc2O[C@@H]1CN(C)Cc1ccc2c(c1)OCO2 | inactive | inactive | inactive
24 | O=S(=O)(O)c1cc(O)ccc1O | inactive | active | inactive
25 | CCCN(C)C[C@H]1OCCCC[C@@H](C)Oc2ccc(NS(=O)(=O)c3cn(C)cn3)cc2C(=O)N([C@H](C)CO)C[C@H]1C | inactive | inactive | inactive
26 | C=CC[C@@H](CC(=O)N(CCO)Cc1ccccc1)C(=O)NCCOC(=O)[C@@H](CC=C)CC(=O)OC(C)(C)C | inactive | inactive | inactive
27 | C[C@@H]1CCCCO[C@@H](CN(C)Cc2ccccc2)[C@@H](C)CN([C@H](C)CO)C(=O)c2cc(NC(=O)c3ccncc3)ccc2O1 | inactive | inactive | inactive

Row | SMILES | cytotoxicity call [1] | cytotoxicity call [2] | growth inhibition call [3]
28 | O=C(CN1CCOCC1)N[C@H]1CC[C@H](CCNC(=O)C2CCC2)O[C@@H]1CO | inactive | inactive | inactive
29 | C[C@H]1CN([C@@H](C)CO)C(=O)c2cccc(NS(=O)(=O)c3cccs3)c2O[C@@H]1CN(C)Cc1ccncc1 | inactive | inactive | inactive
30 | COc1ccc(NC(=O)N(C)C[C@@H]2Oc3ccc(NC(=O)CCCN(C)C)cc3C(=O)N([C@H](C)CO)C[C@H]2C)cc1 | inactive | inactive | inactive
31 | C/C=C/c1ccc2c(c1)O[C@H](CN(C)C(=O)c1ccc3c(c1)OCO3)[C@H](C)CN([C@H](C)CO)S2(=O)=O | inactive | inactive | inactive
32 | C[C@H]1CN([C@@H](C)CO)C(=O)c2cc(NC(=O)Cc3ccccc3)ccc2O[C@H]1CN(C)S(=O)(=O)c1ccccc1 | inactive | inactive | inactive
33 | CC(C)NC(=O)Nc1ccc2c(c1)C(=O)N([C@H](C)CO)C[C@@H](C)[C@@H](CN(C)Cc1ccccc1)OCCCC[C@@H](C)O2 | inactive | inactive | inactive
34 | C[C@@H]1CN(CC(=O)N2CC(C)(C)c3nc(CO)c(Cc4ccc(F)cc4)cc32)[C@@H](CN2CCOC[C@H]2C)CN1 | inactive | inactive | inactive
35 | CC[C@H]1CN(C)N1C(=O)[C@H]1CCCO1 | inactive | inactive | inactive
36 | Cc1noc(C)c1S(=O)(=O)Nc1ccc2c(c1)CC(=O)N([C@H](C)CO)C[C@H](C)[C@H](CN(C)C(=O)Nc1ccc3c(c1)OCO3)O2 | inactive | inactive | inactive
37 | COCC(=O)N1C[C@@H](C)[C@H](OC)CN(C)C(=O)c2ccc(NC(=O)Nc3cccc(F)c3)cc2OC[C@@H]1C | inactive | inactive | inactive
38 | COc1ccc(S(=O)(=O)N(C)C[C@H]2Oc3c(NS(=O)(=O)c4cccs4)cccc3C(=O)N([C@@H](C)CO)C[C@@H]2C)cc1 | inactive | inactive | inactive
39 | C[C@@H]1CN([C@H](C)CO)C(=O)Cc2cc(NC(=O)CCCCCC(=O)Nc3ccccc3N)ccc2O[C@@H]1CN(C)C(=O)Nc1ccccc1 | inactive | inactive | inactive
40 | CCCC#Cc1ccc2c(c1)O[C@H](CN(C)Cc1ccc3c(c1)OCO3)[C@H](C)CN([C@H](C)CO)S2(=O)=O | inactive | inactive | inactive
41 | C[C@@H]1CN([C@@H](C)CO)S(=O)(=O)c2ccc(-c3cncnc3)cc2O[C@H]1CN(C)C(=O)c1cccc(F)c1 | inactive | inactive | inactive
42 | C[C@H](CO)N1C[C@H](C)[C@@H](CN(C)C(=O)Cc2cccnc2)Oc2ncc(C#Cc3ccccc3F)cc2C1=O | inactive | inactive | inactive
43 | C[C@H](CO)N1C[C@H](C)[C@@H](CN(C)C(=O)Nc2ccc(C(F)(F)F)cc2)Oc2ccc(NC(=O)Nc3ccccc3)cc2CC1=O | inactive | inactive | inactive
44 | CC(C)C(=O)NCc1ccnc(N(C)C)n1 | inactive | inactive | inactive
45 | C[C@@H]1CN([C@H](C)CO)C(=O)c2cc(Br)cnc2O[C@H]1CN(C)Cc1ccc2c(c1)OCO2 | inactive | inactive | inactive
46 | C[C@@H]1CN([C@H](C)CO)C(=O)c2cc(NS(=O)(=O)c3ccc(F)cc3)ccc2O[C@@H](C)CCCCO[C@H]1CN(C)C(=O)Nc1ccccc1 | inactive | active | inactive
47 | COc1ccc(CN(C)C[C@H]2OCCCC[C@H](C)Oc3ccc(NC(=O)NC(C)C)cc3C(=O)N([C@H](C)CO)C[C@H]2C)cc1 | inactive | inactive | inactive
48 | Cn1c(C(=O)N2CCCO[C@@H](Cn3cccn3)C2)cc(=O)n(C)c1=O | inactive | inactive | inactive
49 | C[C@H]1CN([C@@H](C)CO)C(=O)c2cc(C#CCN(C)C)cnc2O[C@H]1CN(C)S(C)(=O)=O | inactive | inactive | inactive
50 | Cc1ccc(S(=O)(=O)Nc2ccc3c(c2)CC(=O)N([C@H](C)CO)C[C@@H](C)[C@@H](CN(C)S(=O)(=O)c2cccs2)O3)cc1 | inactive | inactive | inactive
51 | CC(C)NC(=O)[C@@]1(c2ccc([N+](=O)[O-])cc2)CC(=O)N(CC23CC4CC(CC(C4)C2)C3)[C@@H]1c1ccc(CO)cc1 | inactive | inactive | inactive
52 | CC(C)C(=O)NCc1nnnn1-c1ccccc1 | inactive | inactive | inactive
53 | C[C@@H]1CN([C@H](C)CO)C(=O)c2cc(NC(=O)C3CCCCC3)ccc2O[C@@H](C)CCCCO[C@@H]1CN(C)S(=O)(=O)c1ccc(Cl)cc1 | inactive | inactive | inactive
54 | C[C@H](CO)N1C[C@H](C)[C@H](CN(C)S(=O)(=O)c2ccc(F)cc2)Oc2ccc(NC(=O)Cn3cnnn3)cc2CC1=O | inactive | inactive | inactive
